Source: paper PMC4237237
Results are given in words; binding and its absence hold for the method and conditions named. Binding seen in cells or lysates may run through a third protein. Some entries that bind do so weakly or less than the wild type. For some assays here: Tags and fused reporters may be left off the sequences shown. Each block holds one molecule with its values, some of them ahead of it.

By UniProt entry, the sequences of proteins in these tests, tags left out.
UniProt P12956: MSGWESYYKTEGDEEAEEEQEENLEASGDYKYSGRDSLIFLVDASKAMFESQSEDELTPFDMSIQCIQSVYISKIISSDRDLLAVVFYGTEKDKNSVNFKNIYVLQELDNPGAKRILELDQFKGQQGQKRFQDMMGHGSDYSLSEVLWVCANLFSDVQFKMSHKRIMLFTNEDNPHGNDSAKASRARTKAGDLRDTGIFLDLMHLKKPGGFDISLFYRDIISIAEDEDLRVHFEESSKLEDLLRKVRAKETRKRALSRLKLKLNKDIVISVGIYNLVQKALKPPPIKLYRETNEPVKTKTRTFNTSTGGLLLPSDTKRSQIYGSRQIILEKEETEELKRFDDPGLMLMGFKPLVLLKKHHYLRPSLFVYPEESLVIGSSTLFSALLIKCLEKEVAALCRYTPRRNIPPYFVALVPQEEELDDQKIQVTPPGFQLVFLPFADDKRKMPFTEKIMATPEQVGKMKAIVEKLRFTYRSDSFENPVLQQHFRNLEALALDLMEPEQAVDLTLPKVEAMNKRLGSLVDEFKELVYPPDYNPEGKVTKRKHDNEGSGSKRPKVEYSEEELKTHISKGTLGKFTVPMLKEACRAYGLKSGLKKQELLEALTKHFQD
UniProt Q07812: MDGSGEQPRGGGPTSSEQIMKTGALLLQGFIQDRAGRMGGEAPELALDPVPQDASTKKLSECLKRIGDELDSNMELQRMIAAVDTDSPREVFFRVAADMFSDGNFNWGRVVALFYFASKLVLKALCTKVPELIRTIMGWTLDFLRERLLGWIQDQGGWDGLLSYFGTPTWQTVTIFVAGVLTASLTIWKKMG
UniProt Q9UBN7: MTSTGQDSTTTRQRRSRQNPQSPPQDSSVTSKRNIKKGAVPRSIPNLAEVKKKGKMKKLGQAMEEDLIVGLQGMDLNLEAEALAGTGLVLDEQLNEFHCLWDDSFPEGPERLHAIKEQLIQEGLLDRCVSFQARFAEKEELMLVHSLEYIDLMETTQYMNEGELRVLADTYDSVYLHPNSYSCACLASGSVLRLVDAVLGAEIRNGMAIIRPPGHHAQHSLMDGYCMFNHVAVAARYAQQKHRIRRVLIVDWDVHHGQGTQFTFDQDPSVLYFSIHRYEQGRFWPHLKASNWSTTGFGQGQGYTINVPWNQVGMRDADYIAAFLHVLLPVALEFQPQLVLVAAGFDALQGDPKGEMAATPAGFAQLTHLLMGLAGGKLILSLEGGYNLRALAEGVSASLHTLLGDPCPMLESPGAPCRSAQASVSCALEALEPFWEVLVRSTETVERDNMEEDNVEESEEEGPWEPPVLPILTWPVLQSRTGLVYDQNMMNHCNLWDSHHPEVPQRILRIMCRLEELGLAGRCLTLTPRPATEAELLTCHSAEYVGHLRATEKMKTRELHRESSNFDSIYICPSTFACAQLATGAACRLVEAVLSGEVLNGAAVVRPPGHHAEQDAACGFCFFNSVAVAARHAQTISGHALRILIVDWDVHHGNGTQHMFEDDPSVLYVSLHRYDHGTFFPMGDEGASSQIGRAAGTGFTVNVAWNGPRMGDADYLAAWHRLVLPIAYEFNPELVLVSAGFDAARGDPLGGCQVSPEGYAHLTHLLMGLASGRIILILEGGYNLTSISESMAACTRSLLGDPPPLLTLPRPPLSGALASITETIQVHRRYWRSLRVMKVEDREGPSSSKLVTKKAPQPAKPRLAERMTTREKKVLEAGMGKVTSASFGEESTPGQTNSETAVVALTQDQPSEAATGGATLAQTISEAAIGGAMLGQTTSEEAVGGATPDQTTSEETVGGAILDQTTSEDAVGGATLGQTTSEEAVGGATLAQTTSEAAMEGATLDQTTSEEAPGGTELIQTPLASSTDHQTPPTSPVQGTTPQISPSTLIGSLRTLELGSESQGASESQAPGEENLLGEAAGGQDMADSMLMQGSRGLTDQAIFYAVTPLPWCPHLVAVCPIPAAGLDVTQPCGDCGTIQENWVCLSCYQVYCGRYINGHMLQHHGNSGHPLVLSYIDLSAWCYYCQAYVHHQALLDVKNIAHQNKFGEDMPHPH

Assays:
[1] = target: Ku70 (human (endogenous in HCT116)) (UniProt P12956); assay: co-IP; lysates of control HCT116 cells and cells transduced with Ad-SM (SMAR1 overexpression) or sh3 (SMAR1 knock-down), precipitated with Ku70 or Bax antibody, immunoblot
[2] = target: T1, scaffold/matrix-associated region-binding protein 1 (SMAR1) (human (endogenous in HCT116)) (UniProt Q8N9N5); assay: co-IP; sequential IP: HCT116 lysate (1 mg) first precipitated with SMAR1 antibody, eluate then precipitated with HDAC6 antibody, immunoblot
T1 sequence: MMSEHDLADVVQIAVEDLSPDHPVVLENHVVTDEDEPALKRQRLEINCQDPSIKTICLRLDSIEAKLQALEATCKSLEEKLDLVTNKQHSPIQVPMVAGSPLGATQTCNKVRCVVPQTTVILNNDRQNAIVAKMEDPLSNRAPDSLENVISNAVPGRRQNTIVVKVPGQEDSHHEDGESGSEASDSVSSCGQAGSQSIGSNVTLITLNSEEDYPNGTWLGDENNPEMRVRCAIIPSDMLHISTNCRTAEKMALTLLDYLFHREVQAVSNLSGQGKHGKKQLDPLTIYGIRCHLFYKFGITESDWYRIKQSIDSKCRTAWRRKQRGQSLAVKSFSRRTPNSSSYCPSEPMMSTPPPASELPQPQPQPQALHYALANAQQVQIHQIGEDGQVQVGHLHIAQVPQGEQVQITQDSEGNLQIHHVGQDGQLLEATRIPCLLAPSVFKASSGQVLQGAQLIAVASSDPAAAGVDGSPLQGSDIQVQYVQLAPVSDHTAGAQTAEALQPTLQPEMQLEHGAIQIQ

[3] = target: T1, scaffold/matrix-associated region-binding protein 1 (SMAR1) (human (endogenous in HCT116)); assay: co-IP; control and irradiated (10 Gy) HCT116 lysates treated with EtBr (50 μg/ml, 30 min, 4 °C) or DNase I (100 U/ml, 20 min, 37 °C), precipitated with SMAR1 antibody, blotted for Ku70
[4] = target: T1, scaffold/matrix-associated region-binding protein 1 (SMAR1) (human (endogenous in HCT116)); assay: co-IP; HCT116 whole-cell lysates, control or irradiated (10 Gy; 2 h, 8 h or time course), precipitated with SMAR1 antibody cross-linked to protein A/G beads, 4 °C for 4 h, immunoblot of eluates
[5] = target: T1, scaffold/matrix-associated region-binding protein 1 (SMAR1) (human (endogenous in HCT116)); assay: co-IP; in vivo interaction studies in HEK 293 and MCF-7 cells (Supplementary Figure S2)
[6] = target: T2, Flag-tagged SMAR1 protein-interacting domain (160–350 residues) (UniProt Q8VBU8); assay: co-IP; HCT116 cells transfected with Flag-tagged SMAR1 constructs, untreated or irradiated (10 Gy, 2 h), lysates precipitated with anti-Flag antibody, immunoblot
T2 sequence: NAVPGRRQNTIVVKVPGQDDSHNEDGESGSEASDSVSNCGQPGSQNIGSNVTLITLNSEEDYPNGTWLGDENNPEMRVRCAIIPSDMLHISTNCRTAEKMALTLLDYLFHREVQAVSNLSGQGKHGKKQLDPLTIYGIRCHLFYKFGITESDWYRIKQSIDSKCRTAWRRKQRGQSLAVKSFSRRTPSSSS

[7] = target: T3, Flag-tagged SMAR1 DNA-binding domain (350–548 residues) (UniProt Q8VBU8); assay: as above
T3 sequence: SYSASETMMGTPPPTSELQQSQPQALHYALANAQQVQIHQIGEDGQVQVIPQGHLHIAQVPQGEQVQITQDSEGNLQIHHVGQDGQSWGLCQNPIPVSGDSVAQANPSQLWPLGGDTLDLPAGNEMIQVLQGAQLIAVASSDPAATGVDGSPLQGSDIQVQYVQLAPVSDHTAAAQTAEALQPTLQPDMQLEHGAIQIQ

[8] = target: T4, Flag-tagged SMAR1 N-terminal region (1–160 residues) (UniProt Q8VBU8); assay: as above
T4 sequence: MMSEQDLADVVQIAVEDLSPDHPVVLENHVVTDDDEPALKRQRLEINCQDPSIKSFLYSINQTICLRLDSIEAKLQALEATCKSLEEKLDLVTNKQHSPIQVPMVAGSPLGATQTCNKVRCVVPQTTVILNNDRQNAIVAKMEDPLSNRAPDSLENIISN

[9] = target: T5, SMAR1 of the in vitro GST pull-down (UniProt Q8VBU8); assay: pull-down; in vitro GST pull-down (Supplementary Figure S2); which partner carried GST not told
T5 sequence: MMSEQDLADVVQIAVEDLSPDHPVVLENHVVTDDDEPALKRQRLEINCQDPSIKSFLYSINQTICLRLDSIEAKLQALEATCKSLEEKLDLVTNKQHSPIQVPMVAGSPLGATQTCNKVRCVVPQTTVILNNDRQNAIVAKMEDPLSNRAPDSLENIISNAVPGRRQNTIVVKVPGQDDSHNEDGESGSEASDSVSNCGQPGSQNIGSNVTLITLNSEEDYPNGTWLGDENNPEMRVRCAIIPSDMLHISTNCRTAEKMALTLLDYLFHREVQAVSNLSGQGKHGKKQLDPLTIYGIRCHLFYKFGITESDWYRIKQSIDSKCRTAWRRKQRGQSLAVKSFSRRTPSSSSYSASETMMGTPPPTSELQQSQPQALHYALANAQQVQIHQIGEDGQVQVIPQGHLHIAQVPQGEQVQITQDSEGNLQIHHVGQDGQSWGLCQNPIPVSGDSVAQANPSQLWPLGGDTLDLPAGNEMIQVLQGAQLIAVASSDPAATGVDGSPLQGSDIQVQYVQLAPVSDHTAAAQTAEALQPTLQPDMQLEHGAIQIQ

[10] = target: Ku70 (human (endogenous in HCT116)) (UniProt P12956); assay: co-IP; reverse IP in HCT116 cells (Supplementary Figure S2)

Molecule: Bax (from UniProt Q07812 1-192)
binding [1]: binds

Molecule: HDAC6 (from UniProt Q9UBN7 1-1215) (enzyme)
binding [2]: binds

B1: scaffold/matrix-associated region-binding protein 1 (SMAR1) (protein, UniProt Q8N9N5 1-519)
chain: MMSEHDLADVVQIAVEDLSPDHPVVLENHVVTDEDEPALKRQRLEINCQDPSIKTICLRLDSIEAKLQALEATCKSLEEKLDLVTNKQHSPIQVPMVAGSPLGATQTCNKVRCVVPQTTVILNNDRQNAIVAKMEDPLSNRAPDSLENVISNAVPGRRQNTIVVKVPGQEDSHHEDGESGSEASDSVSSCGQAGSQSIGSNVTLITLNSEEDYPNGTWLGDENNPEMRVRCAIIPSDMLHISTNCRTAEKMALTLLDYLFHREVQAVSNLSGQGKHGKKQLDPLTIYGIRCHLFYKFGITESDWYRIKQSIDSKCRTAWRRKQRGQSLAVKSFSRRTPNSSSYCPSEPMMSTPPPASELPQPQPQPQALHYALANAQQVQIHQIGEDGQVQVGHLHIAQVPQGEQVQITQDSEGNLQIHHVGQDGQLLEATRIPCLLAPSVFKASSGQVLQGAQLIAVASSDPAAAGVDGSPLQGSDIQVQYVQLAPVSDHTAGAQTAEALQPTLQPEMQLEHGAIQIQ
binding [10]: binds

Now from value to molecule:

binding [3]: binds
binding [4]: binds
binding [5]: binds
binding [2]: binds
binding [6]: binds
binding [7]: no binding
binding [8]: no binding
Molecule: Ku70 (from UniProt P12956 1-609)

binding [9]: binds
Molecule: Ku70 of the in vitro GST pull-down (from UniProt P12956 1-609)
